# Measured values taken from PubChem BioAssay (Tox21).
# Where “and” joins values, the source holds several entries; their conditions need not be identical. Identical values can stand only once. The shares of active, inactive and inconclusive entries below differ from those in the screen. Potencies of inconclusive entries are doubtful fits and often do not repeat. A structure can be active in one record and inactive in another. Calls of active or inactive are those of the source. The call rests on the fitted dose curve; in most records, active means well fitted curve in the direction sought with a large enough effect in the repeat runs; inconclusive means weak or mixed curves; inactive means no such curve, though single readings can be large; an effect the other way counts as inactive or inconclusive.
# Legend:
# [1] = Caspase-3/7 induction in HepG2 cells by small molecules, qHTS cell viability counter screen (AID 1346981); further: nearly all actives have a fitted effect of over 30% in size
# In short: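 After a 5-hr attachment period at 37 C and 5% CO2, wild-type HepG2 cells received compounds in DMSO. Sixteen hours later CellTiter-Fluor was dispensed and the fluorescent signal quantified after a further hour.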
# [2] = target: Nuclear receptor subfamily 1 group I member 2 (Homo sapiens) (UniProt O75469); test: Human pregnane X receptor (PXR) activation by small molecules, qHTS assay (AID 1346985); further: nearly all actives have a fitted effect of over 40% in size
# In short: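 DPX-2 cells (HepG2 co-transfected with a PXR response element and a CYP3A4-promoter luciferase construct) were seeded at 2,000 per well, rested 5 hr at 37C, then exposed to DMSO-dissolved compounds for 24 hr. Activation was read as luciferase luminescence.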
# [3] = target: Cytochrome P450 2D6 (Homo sapiens) (UniProt P10635); test: Cytochrome P450 Family 2 Subfamily D Member 6 (CYP2D6) small molecule antagonists: luciferase reporter qHTS assay (AID 1671196); further: nearly all actives have a fitted effect of over 50% in size
# Sequence of UniProt P10635 (P10635 whole entry, looked up): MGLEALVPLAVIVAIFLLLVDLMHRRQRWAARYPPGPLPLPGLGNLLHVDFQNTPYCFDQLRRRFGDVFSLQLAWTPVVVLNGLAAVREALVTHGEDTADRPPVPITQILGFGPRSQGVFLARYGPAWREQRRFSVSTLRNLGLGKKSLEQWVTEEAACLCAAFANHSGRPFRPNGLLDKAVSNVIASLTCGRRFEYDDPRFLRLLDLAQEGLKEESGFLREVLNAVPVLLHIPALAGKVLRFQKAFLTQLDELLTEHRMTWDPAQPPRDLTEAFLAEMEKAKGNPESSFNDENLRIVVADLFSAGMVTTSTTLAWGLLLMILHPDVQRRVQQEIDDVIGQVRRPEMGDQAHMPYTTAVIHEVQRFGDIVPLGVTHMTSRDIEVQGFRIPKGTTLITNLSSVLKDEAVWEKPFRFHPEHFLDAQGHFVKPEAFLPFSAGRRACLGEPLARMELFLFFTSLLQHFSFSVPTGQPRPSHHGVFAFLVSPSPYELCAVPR
# In short: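 Room-temperature luminescent CYP2D6 activity assay: compound preincubated 10 min with enzyme–substrate mix, NADPH-initiated reaction 1 h, detection reagent 20 min before reading.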
# [4] = target: Nuclear receptor subfamily 1 group I member 2 (Homo sapiens) (UniProt O75469); test: Human pregnane X receptor (PXR) small molecule agonists, qHTS assay (AID 1346982); further: nearly all actives have a fitted effect of over 35% in size
# In short: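 Tox21 qHTS; PXR-Luc HepG2; compounds pinned from DMSO; 24 hr, 37 C; ONE-Glo luciferase detection, 30 min room temperature.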
# [5] = target: Cytochrome P450 2C19 (Homo sapiens) (UniProt P33261); test: Cytochrome P450 Family 2 Subfamily C Member 19 (CYP2C19) small molecule antagonists: luciferase reporter qHTS assay (AID 1671197); further: nearly all actives have a fitted effect of over 65% in size
# Sequence of UniProt P33261 (P33261 whole entry, looked up): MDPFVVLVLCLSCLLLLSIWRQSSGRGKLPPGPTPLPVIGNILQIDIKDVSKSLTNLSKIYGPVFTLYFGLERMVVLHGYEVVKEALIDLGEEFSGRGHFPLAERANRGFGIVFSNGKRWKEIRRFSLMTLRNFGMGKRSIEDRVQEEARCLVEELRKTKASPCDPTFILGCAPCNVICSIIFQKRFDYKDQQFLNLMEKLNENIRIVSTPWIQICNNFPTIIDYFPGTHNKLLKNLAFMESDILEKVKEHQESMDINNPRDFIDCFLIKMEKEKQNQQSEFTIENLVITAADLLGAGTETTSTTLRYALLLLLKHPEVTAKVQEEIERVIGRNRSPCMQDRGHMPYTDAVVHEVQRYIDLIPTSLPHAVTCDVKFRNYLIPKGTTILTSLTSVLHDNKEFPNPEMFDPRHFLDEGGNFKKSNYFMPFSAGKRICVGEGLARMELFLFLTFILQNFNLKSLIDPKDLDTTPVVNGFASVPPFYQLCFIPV
# In short: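 Enzyme-substrate mix with proluciferin substrate (P450-Glo CYP2C19 system) preincubated with compounds 10 min at room temperature; NADPH regeneration solution added, 37C for 1 h; detection reagent stops reaction, luminescence read after 20 min. Ketoconazole positive control.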
# Potency means the concentration at half of the fitted maximal effect; tags describe the fitted curve by direction and shape.
compound,measurement,setting,value
CC[C@@]1(O)C(=O)OCc2c1cc1n(c2=O)Cc2c-1nc1ccccc1c2/C=N/OC(C)(C)C,Potency,[1],"inconclusive: 0.0668 µM [cytotoxic, full curve]"
COC(=O)C1=C(C)NC(C)=C(C(=O)OCC(C)C)C1c1ccccc1[N+](=O)[O-] (stereo not drawn),Potency,[1],"inconclusive: 33.5 µM [cytotoxic, single point]"
COCC(=O)Nc1c(I)c(C(=O)NCC(O)CO)c(I)c(C(=O)N(C)CC(O)CO)c1I (stereo not drawn),Potency,[1],inactive
same,Potency,[2],"inconclusive: 12.6 µM [activator, single point]"
same,Potency,[3],"inconclusive: 43.6 µM [inhibitor, single point]"
O=C(OC[C@H]1O[C@@H](OC(=O)c2cc(O)c(O)c(OC(=O)c3cc(O)c(O)c(O)c3)c2)[C@H](OC(=O)c2cc(O)c(O)c(OC(=O)c3cc(O)c(O)c(O)c3)c2)[C@@H](OC(=O)c2cc(O)c(O)c(OC(=O)c3cc(O)c(O)c(O)c3)c2)[C@@H]1OC(=O)c1cc(O)c(O)c(OC(=O)c2cc(O)c(O)c(O)c2)c1)c1cc(O)c(O)c(OC(=O)c2cc(O)c(O)c(O)c2)c1,Potency,[1],active: 18.5 µM
same,Potency,[2],active: 10 µM
Nc1cc([N+](=O)[O-])ccc1O,Potency,[1],active: 48.6 µM and active: 68.2 µM
same,Potency,[4],"inconclusive: 27.2 µM [activator, full curve, poor fit]"
same,Potency,[3],inactive
CC(C)(c1ccccc1)c1ccccc1,Potency,[1],inactive
same,Potency,[4],"inconclusive: 56.8 µM [activator, single point]"
O=C(OCC1CCC2OC2C1)C1CCC2OC2C1 (stereo not drawn),Potency,[1],"inconclusive: 17.2 µM [rising, partial curve, poor fit]"
same,Potency,[3],active: 16.6 µM
COC(=O)c1c(Cl)c(Cl)c(C(=O)OC)c(Cl)c1Cl,Potency,[1],"inconclusive: 21.7 µM [rising, partial curve]"
same,Potency,[4],inconclusive: 54.5 µM [activator] and active: 21.7 µM
CCCCCCCCCCCCCC[P+](CCCC)(CCCC)CCCC,Potency,[1],"active: 54.2 µM and inconclusive: 68.6 µM [cytotoxic, single point]"
same,Potency,[4],active: 2.16 µM and active: 6.86 µM
CCCCCCCCCCCCCCCCCC[N+](C)(C)C,Potency,[1],"inconclusive: 68.8 µM [cytotoxic, single point]"
CC(C)(C)c1ccc(O)c(O)c1,Potency,[1],"inconclusive: 50.2 µM [cytotoxic, partial curve] and inconclusive: 45.8 µM [cytotoxic]"
same,Potency,[3],"inconclusive: 1.31 µM [inhibitor, full curve]"
O=C1OC(O)C(C(Cl)Cl)=C1Cl (stereo not drawn),Potency,[1],active: 50 µM
COc1ccc(OC)c(C(O)CNC(=O)CN)c1 (stereo not drawn),Potency,[1],"inconclusive: 27.3 µM [cytotoxic, single point]"
O=C(COc1ccc(Cl)cc1)N1CCN(Cc2ccc3c(c2)OCO3)CC1,Potency,[1],"inconclusive: 68.6 µM [cytotoxic, single point]"
O=C1c2c(O)ccc(O)c2C(=O)c2c(NCCNCCO)ccc(NCCNCCO)c21,Potency,[1],active: 11.9 µM
C#CC1(O)CC[C@H]2[C@@H]3CCC4=CCCC[C@@H]4[C@H]3CC[C@@]21C (stereo partly drawn),Potency,[1],"inconclusive: 68.6 µM [cytotoxic, single point] and inconclusive: 37.6 µM [cytotoxic, single point]"
same,Potency,[3],"inconclusive: 63.3 µM [inhibitor, partial curve] and inactive"
same,Potency,[5],active: 7.96 µM and active: 11 µM
CCc1cc(Cc2cc(CC)c(N)c(CC)c2)cc(CC)c1N,Potency,[1],"inconclusive: 13.7 µM [cytotoxic, partial curve]"
Cc1ccc(S(=O)(=O)Oc2ccc(N=Nc3ccc(-c4ccc(N=Nc5c(O)ccc6cc(S(=O)(=O)O)cc(S(=O)(=O)O)c56)c(C)c4)cc3C)cc2)cc1,Potency,[1],active: 19.4 µM and active: 15.9 µM
same,Potency,[3],active: 40.1 µM and active: 26 µM
O=C(O)c1ccccc1C(c1ccc(O)cc1)c1ccc(O)cc1,Potency,[1],"inconclusive: 10.9 µM [cytotoxic, full curve, poor fit]"
Cc1ccc(-n2[nH]c(C)c(N=Nc3cccc(-c4cccc(C(=O)O)c4)c3O)c2=O)cc1C,Potency,[1],"inconclusive: 33.5 µM [cytotoxic, single point]"
same,Potency,[3],"inconclusive: 17.4 µM [inhibitor, partial curve]"
c1ccc2[nH]ccc2c1,Potency,[1],"inconclusive: 67.5 µM [cytotoxic, partial curve, poor fit]"
same,Potency,[4],"inconclusive: 15.1 µM [activator, single point]"
same,Potency,[3],"inconclusive: 87.9 µM [inhibitor, partial curve, poor fit] and inconclusive: 63.3 µM [inhibitor, partial curve]"
same,Potency,[5],"inconclusive: 89.4 µM [inhibitor, single point]"
CC(C)Cc1ccccc1,Potency,[1],"inconclusive: 27.3 µM [cytotoxic, partial curve]"
O=C1CCCCCCCCCCCCCC1,Potency,[1],inactive
Nc1ccc(N)c2ccccc12,Potency,[1],"inconclusive: 68.5 µM [cytotoxic, single point]"
same,Potency,[3],active: 3.99 µM
CC(Cc1ccc(O)c(O)c1)C(C)Cc1ccc(O)c(O)c1 (stereo not drawn),Potency,[1],"inconclusive: 61.1 µM [cytotoxic, single point]"
